Assay results as given in the supplement of paper PMC10126150.
Values marked as one replicate rest on one cluster of the flow cell; about a third of the high ones do not repeat.

Test system: ATP
Test: switch fluorescence ratio, 500 uM ATP over buffer (Cy3 cluster intensity, sum of 5 cycles each) (fold (ratio)); higher = stronger signal-on switching upon ATP binding; sequences stand for … in TCGTCGGCAGCGTCAGATGTGTATAAGAGACAGTTTTTTTTTTTTTTTTTTTTTTTTT…TC
Settings: aptamer strand: ATP DNA aptamer (quencher-CACCTGGGGGAGTATTGCGGAGGAAGG + anchor), 100 nM annealed; ATP concentration: 500 uM; one replicate
Outline: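 After annealing to 100 nM quencher-labelled ATP aptamer, Cy3-labelled switching-strand clusters on a modified Illumina MiSeq flow-cell were imaged in selection buffer. A second image followed after 15 min with 500 uM ATP at 22 °C, and five such buffer/ATP cycles were done, each separated by NaOH stripping and re-annealing. The fluorescence ratio, averaged per switch-domain sequence, is summed target-cycle over summed buffer-cycle Cy3 intensity per cluster, with clusters outside 100-1000 RFU excluded.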
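Also: ATP exposure 15 min at 22 °C before imaging.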

| Sequence | switch fluorescence ratio |
| --- | --- |
| GGTGCTAAAA | 1 |
| GGTGCTGGT | 1.01 |
| GGTGCTTTGA | 1 |
| GGTGGACTGC | 1.03 |
| GGTGGAGAAA | 0.988 |
| GGTGGAGATG | 0.979 |
| GGTGGCAGGC | 0.993 |
| GGTGGCGGAG | 0.994 |
| GGTGGCGGCT | 1.01 |
| GGTGGCGTTC | 0.984 |
| GGTGGGGTTC | 0.972 |
| GGTGGGTCCG | 0.981 |
| GGTGGTAACT | 0.991 |
| GGTGGTGGAT | 0.987 |
| GGTGGTTCCC | 1.01 |
| GGTGTAAGGT | 1.06 |
| GGTGTATAC | 1.04 |
| GGTGTATCG | 0.994 |
| GGTGTATGAT | 0.988 |
| GGTGTATTTT | 0.986 |
| GGTGTCGCA | 1 |
| GGTGTCGGGG | 1.04 |
| GGTGTCGTAA | 1.02 |
| GGTGTGGCCC | 0.985 |
| GGTGTGTAAT | 0.958 |

| Sequence | switch fluorescence ratio |
| --- | --- |
| GGTGTGTCAA | 1.02 |
| GGTGTGTTCC | 1.07 |
| GGTGTTCCTA | 0.983 |
| GGTGTTGGAA | 1.05 |
| GGTGTTTTAC | 1 |
| GGTTACCCTT | 0.965 |
| GGTTAGCGCG | 1.02 |
| GGTTAGGATT | 1.03 |
| GGTTAGTCTA | 0.981 |
| GGTTATTAGG | 0.99 |
| GGTTATTATT | 0.962 |
| GGTTATTTTA | 0.988 |
| GGTTCAGACT | 0.958 |
| GGTTCATACT | 1.03 |
| GGTTCCATGG | 1.04 |
| GGTTCCTCGT | 1.13 |
| GGTTCGTGTG | 0.988 |
| GGTTCTAGCT | 0.964 |
| GGTTCTGCTA | 0.95 |
| GGTTCTGGAA | 0.991 |
| GGTTCTGGCA | 1.01 |
| GGTTCTGGGG | 0.981 |
| GGTTCTTGGG | 0.995 |
| GGTTGAGCT | 0.966 |
| GGTTGATGGC | 0.99 |

| Sequence | switch fluorescence ratio |
| --- | --- |
| GGTTGATTCG | 1.02 |
| GGTTGCAGAC | 1.02 |
| GGTTGGCGAC | 1.02 |
| GGTTGGCGGC | 1 |
| GGTTGGGACC | 1.02 |
| GGTTGGGTCG | 0.953 |
| GGTTGTCAAC | 1.02 |
| GGTTGTGAGC | 0.969 |
| GGTTGTGAGG | 0.958 |
| GGTTGTTATG | 0.999 |
| GGTTGTTTAC | 0.973 |
| GGTTTACACC | 1.02 |
| GGTTTACCGC | 0.992 |
| GGTTTAGGAT | 1.01 |
| GGTTTATGCG | 1.01 |
| GGTTTCACCT | 1.04 |
| GGTTTCCGCT | 1.09 |
| GGTTTCTATT | 0.999 |
| GGTTTGAAGT | 0.996 |
| GGTTTGACA | 1.01 |
| GGTTTTCATG | 1.01 |
| GGTTTTCTAT | 0.96 |
| GGTTTTTTCG | 1.04 |
| GTAAAATTAG | 0.989 |
| GTAAAGAGCG | 1.02 |

| Sequence | switch fluorescence ratio |
| --- | --- |
| GTAACACGGG | 0.993 |
| GTAACCTAGA | 1.05 |
| GTAACTCATA | 1.03 |
| GTAAGAGAGG | 0.967 |
| GTAAGCAAGT | 1.13 |
| GTAAGCGTAG | 0.965 |
| GTAAGGTGAA | 1.06 |
| GTAAGTGTTA | 0.977 |
| GTAAGTTCCG | 0.963 |
| GTAATAGGCC | 1.07 |
| GTAATATATG | 0.981 |
| GTAATCCCTC | 1.01 |
| GTAATCTACG | 1.02 |
| GTAATCTCTA | 0.987 |
| GTAATGACCC | 1.66 |
| GTAATGGTAA | 1 |
| GTAATTAGGT | 0.988 |
| GTAATTCTT | 0.948 |
| GTAATTTTTG | 0.979 |
| GTACAAGCC | 0.987 |
| GTACAAGGGA | 0.986 |
| GTACACGGAG | 0.991 |
| GTACATAGGT | 1.03 |
| GTACGCCTTT | 0.971 |
| GTACGGACGG | 1.49 |

| Sequence | switch fluorescence ratio |
| --- | --- |
| GTACGTTGGG | 1.02 |
| GTACTATATT | 1.11 |
| GTACTCATGT | 0.997 |
| GTACTCTGCT | 1.05 |
| GTACTGATCC | 1.06 |
| GTACTTAAAC | 1.1 |
| GTACTTTGGT | 0.97 |
| GTAGAAATCT | 1.02 |
| GTAGAAGCTG | 1.01 |
| GTAGAATTA | 0.985 |
| GTAGACTTGA | 1.02 |
| GTAGATGGGA | 1.02 |
| GTAGATTAAA | 1 |
| GTAGCAAAGT | 1.58 |
| GTAGCAACG | 1.18 |
| GTAGCACCGG | 0.987 |
| GTAGCAGCTT | 1.07 |
| GTAGCCGCAT | 1.07 |
| GTAGCCGGTT | 1.1 |
| GTAGCGTGTC | 1.05 |
| GTAGCTTGTG | 0.988 |
| GTAGGAAGGG | 1.02 |
| GTAGGGAAGC | 1 |
| GTAGGTGATA | 1.03 |
| GTAGTACGCT | 1.03 |

| Sequence | switch fluorescence ratio |
| --- | --- |
| GTAGTAGGTT | 0.985 |
| GTAGTATTTA | 0.994 |
| GTAGTCGCG | 1.05 |
| GTAGTCGTGT | 0.974 |
| GTAGTTGGTT | 0.99 |
| GTAGTTTGTT | 0.991 |
| GTATACAGCG | 0.978 |
| GTATAGATTA | 1.03 |
| GTATCGATGA | 0.985 |
| GTATCGCTT | 1.01 |
| GTATCGCTTA | 1.03 |
| GTATGACCTG | 0.988 |
| GTATGACGTG | 0.99 |
| GTATGATAGT | 0.972 |
| GTATGCTTTG | 0.977 |
| GTATGGAACA | 1.03 |
| GTATGGACGT | 0.988 |
| GTATTAACTT | 1.02 |
| GTATTAGTAC | 0.959 |
| GTATTATGAG | 0.987 |
| GTATTCAAGT | 0.961 |
| GTATTCCCCG | 1.09 |
| GTATTGAGCG | 1.01 |
| GTATTGGGCG | 1.05 |
| GTATTTAATT | 1 |

| Sequence | switch fluorescence ratio |
| --- | --- |
| GTATTTTGAC | 0.986 |
| GTCAACAAAA | 0.995 |
| GTCAACAGTG | 1.04 |
| GTCAACTTGG | 0.994 |
| GTCAATGACC | 0.991 |
| GTCACACTC | 1.06 |
| GTCACCCGCT | 1.07 |
| GTCACCTCTG | 1.01 |
| GTCACTCCCC | 2.29 |
| GTCACTCTGT | 1 |
| GTCACTTGCG | 0.961 |
| GTCAGCCATC | 1.08 |
| GTCAGGCGGC | 0.994 |
| GTCAGGCTTG | 1.02 |
| GTCAGGTATG | 0.948 |
| GTCAGGTCCA | 1.07 |
| GTCAGTATGC | 0.995 |
| GTCAGTGCGC | 0.978 |
| GTCATAAAAG | 1.01 |
| GTCATAACGT | 1.01 |
| GTCATAAGTC | 1.04 |
| GTCATGGCCG | 1.02 |
| GTCATGTAGC | 0.984 |
| GTCATTAATT | 1.01 |
| GTCCAAGAAA | 0.997 |

| Sequence | switch fluorescence ratio |
| --- | --- |
| GTCCATATTA | 0.999 |
| GTCCATGGGG | 1.02 |
| GTCCCAATTT | 1.06 |
| GTCCCCTGTG | 2.08 |
| GTCCGAGCGT | 1.23 |
| GTCCGGCTAT | 1.07 |
| GTCCGTGGGA | 0.988 |
| GTCCTAGGGG | 1.09 |
| GTCCTCGCCG | 0.948 |
| GTCCTTATGG | 0.971 |
| GTCCTTGTA | 0.996 |
| GTCGAAGGAC | 0.984 |
| GTCGAATGGA | 0.982 |
| GTCGACGATT | 0.967 |
| GTCGAGAAAT | 1.02 |
| GTCGAGGTG | 1.07 |
| GTCGAGTTAG | 1.01 |
| GTCGATCTCG | 0.975 |
| GTCGATCTCT | 1 |
| GTCGATGATG | 0.971 |
| GTCGCACCCT | 1.06 |
| GTCGCAGTGC | 2.22 |
| GTCGCATGCA | 1.01 |
| GTCGCGCGGG | 1.04 |
| GTCGGAAATT | 1.03 |
